Measured values reported in PubChem BioAssay AID463173 (ICCB-Longwood Screening Facility, Harvard Medical School, 2010).
Out of some 52,000 compounds screened, about 1,700 (3.3%) were called active. Rule as the data show it: active = survival mostly below about 52% (no sharp cut-off); inactive = mostly above about 56%. Some of the results follow.

Test system: Wild type
Experiment: growth inhibition of S. aureus wild type versus tarO mutant, primary screen, teichoic acid synthesis inhibitors, RN4220, OD600 (AID 463173)
Details: S. aureus RN4220 wild type/DeltatarO growth, OD600, 18 h, stronger effect = lower value, screened at 18.75 µg/mL (by protocol)

| Compound | survival |
| --- | --- |
| COCCNC(=O)c1ccc2nc(Cc3ccccc3)oc2c1 | inactive: 90% |
| CC(C)N(CCCNC(=O)Cn1ncc2c([nH]c3ccccc32)c1=O)Cc1ccccc1 | inactive: 81% |
| CCC(=O)C1=C(c2ccc(OC)c(OC)c2)N(C(=O)CC)n2c(nnc2-c2ccc(C)cc2)S1 | inactive: 74% |
| CCOC(=O)c1ccc(NC(=O)CSc2nc3ccccc3c(=O)n2CCC(=O)NC2CCCCC2)cc1 | inactive: 77% |
| COc1ccc(-c2nc(CS(=O)(=O)CC(=O)NCCc3ccc(C)cc3)c(C)o2)cc1 | inactive: 91% |
| CC(=O)c1ccc(N2CCN(c3ccc4cc(S(=O)(=O)N5CCCCC5)ccc4n3)CC2)cc1 | inactive: 57% |
| O=C1CCC(=O)N1C(c1ccccc1)c1ccccc1 | inactive: 104% |
| CN(C)CCCC1(O)c2ccccc2CCc2ccccc21 | inactive: 97% |
| CC(=O)c1cc(-c2ccccc2)n(CC(=O)Nc2ccc(C)c(C)c2)c1C | inactive: 75% |
| COc1ccc(OC)c(CNS(=O)(=O)c2ccc(-c3coc(C)n3)cc2)c1 | inactive: 85% |
| CCOc1ccc(CNC(=O)CS(=O)(=O)c2cccc3nsnc23)cc1 | inactive: 126% |
| COc1ccccc1-c1nc(SCC(=O)NCc2ccccc2)c2c(=O)n(C)c(=O)n(C)c2n1 | inactive: 69% |
| O=C(CSC1=NC2CCCCC2N1)N1CCOCC1 (configuration not stated) | inactive: 99% |
| COc1ccccc1-c1noc(-c2ccc(NC3CCCC3)c([N+](=O)[O-])c2)n1 | inactive: 67% |
| Cc1cc2nc(-c3ccc(NC(=O)c4ccccc4F)cc3)oc2cc1C | inactive: 78% |
| N#CC1(c2ccccc2)CCCN1C(=O)c1ccco1 (configuration not stated) | inactive: 108% |
| Nc1ncc(S(=O)(=O)Nc2ccc(F)cc2F)cn1 | inactive: 82% |
| COc1ccc(C2C=C(c3ccccc3)Nc3nc(NC(=O)/C=C/c4ccccc4Cl)nn32)cc1 (configuration not stated) | inactive: 112% |
| CCc1cnc2c(c1SCC(=O)NCc1ccc(F)cc1)c(=O)n(C)c(=O)n2C | inactive: 131% |
| Cc1cccc(C(=O)Nc2ccc3nc(SCCOc4ccccc4)sc3c2)c1 | inactive: 93% |
| COc1ccc(CCNc2nc(SCc3ccc(Cl)cc3)nc3ccccc23)cc1OC | inactive: 69% |
| Nc1c(C(=O)Nc2cccc(F)c2)c2ccccn2c1C(=O)c1ccccc1 | inactive: 97% |
| CCOC(=O)c1c(NC(=O)COc2cccc(C)c2C)sc(C(C)=O)c1C | inactive: 130% |

| Compound | survival |
| --- | --- |
| COc1ccc(N2CCN(C(c3ccccc3F)c3sc4nc(-c5ccco5)nn4c3O)CC2)cc1 (configuration not stated) | inactive: 66% |
| COc1ccc(Cl)cc1NC(=O)Cn1c(=O)c(-c2ccccc2NC(C)=O)nc2ccccc21 | inactive: 112% |
| Cc1ccc(C)c(Cn2c(C(=O)O)c(CNCc3cccs3)c3ccccc32)c1 | inactive: 86% |
| Fc1ccc(CSc2nncn2NCc2ccc3c(c2)OCO3)cc1 | inactive: 105% |
| Cc1cc(C)c2c(c1)c(C)cc1nnc(SCC(=O)c3ccc(F)cc3)n12 | inactive: 61% |
| COC(=O)c1ccccc1NC(=O)Cn1c(=O)cc(C)c2c(C)nn(C)c21 | inactive: 85% |
| CCCCC(=O)N1CCc2cc(OC)c(OC)cc2C1COc1ccc(OC)cc1 (configuration not stated) | inactive: 74% |
| Cc1c(C(=O)O)oc2c1-c1nn(Cc3ccc(Cl)cc3)cc1CC2 | inactive: 77% |
| CN(C)CCNC(=O)C(=O)NCC(c1ccc2c(c1)OCO2)N1CCOCC1 (configuration not stated) | inactive: 73% |
| Cc1cc(-c2ccccc2)n2nc(-c3ccccc3)cc2n1 | active: -2% |
| COc1ccccc1C(=O)Nc1c(C(=O)Nc2ccccc2F)oc2ccccc12 | active: 2% |
| CCCCOc1ccc(C(=O)OCC2CCCN3CCCCC23)cc1OC (configuration not stated) | inactive: 108% |
| COc1cccc(CNS(=O)(=O)c2ccc3c(c2)C(C(C)C)C(=O)N3)c1 (configuration not stated) | inactive: 152% |
| Cc1ccc2cccc(NC(=O)C(C)Oc3ccc(Cl)cc3Cl)c2n1 (configuration not stated) | active: -9% |
| O=C(NCCC1CCCC1)c1cccs1 | inactive: 109% |
| CCOc1ccc(C(c2c(O)cc(C)n(Cc3ccco3)c2=O)N2CCCCC2)cc1 (configuration not stated) | inactive: 72% |
| O=C(Nc1cccc(-c2nc3ccccc3o2)c1)C(F)(F)F | inactive: 70% |
| CN(C)CCN1C(=O)C(=O)/C(=C(/O)c2ccc(S(=O)(=O)N(C)C)cc2)C1c1ccccc1 (configuration not stated) | inactive: 102% |
| COc1ccc(CNC(=O)Nc2cn(CC(C)C)c(=O)c3ccccc23)cc1 | inactive: 71% |
| CC(=O)c1ccc(NC(=O)CN(C)S(=O)(=O)c2cnc[nH]2)cc1 | inactive: 85% |
| Cc1cc(Cl)ccc1OCC(=O)N1CCC(c2nc3ccccc3s2)CC1 | inactive: 35% |
| Cc1cc(C)c(NC(=O)CSc2nncn3c2cc2oc(C)cc23)c(C)c1 | inactive: 85% |
| Cc1ccn2c(Nc3ccc(C(C)C)cc3)c(-c3cccnc3)nc2c1 | inactive: 47% |

| Compound | survival |
| --- | --- |
| Cc1ccc(OCCSc2nc(C)c(Cc3ccccc3)c(=O)[nH]2)cc1 | inactive: 86% |
| CC(=O)c1cccc(NS(=O)(=O)c2cc3c(cc2C)N(C(C)=O)CCO3)c1 | inactive: 83% |
| O=C(CCCc1ccccc1)NC1CC(=O)N(c2ccc(F)cc2)C1 (configuration not stated) | inactive: 72% |
| Cn1nc(OCC(N)=O)ccc1=O | inactive: 104% |
| CCc1cccc(NC(=O)c2ccc(NC(=O)N3CCSc4ncccc43)cc2)c1 | active: -3% |
| Cc1ccc(NC(=O)N2CCC(CN3CCCC3)CC2)c(C)c1 | inactive: 87% |
| Cc1ccc(-c2nc(C(=O)NCc3ccccc3Cl)c3n2CCCCC3)cc1 | inactive: 76% |
| Cc1ccc2nc(-c3cc(NC(=O)COc4ccc(C)c(C)c4)ccc3Cl)oc2c1 | inactive: 57% |
| Cc1ccc(S(=O)(=O)Nc2cc3c(cc2N2CCOCC2)n(C)c(=O)n3C)cc1 | inactive: 80% |
| Cc1ccc(NC(=O)N2CCN(c3cc(-c4noc(C)n4)ccc3C)CC2)c(F)c1 | active: -6% |
| CCC(=O)Oc1ccc(C2Nc3ccccc3-c3nnc(SC)nc3O2)cc1 (configuration not stated) | inactive: 83% |
| Cc1ccc(C(=O)NCC(c2ccc3c(c2)OCO3)N2CCOCC2)cc1 (configuration not stated) | inactive: 78% |
| CCc1nn(CCCC(=O)N2CCN(c3cccc(OC)c3)CC2)c(=O)c2cc3occc3n12 | inactive: 124% |
| Cc1c(-c2nc(-c3ccc4c(c3)OCO4)no2)nnn1-c1ccc(C(C)C)cc1 | inactive: 73% |
| Cc1cccc(NC(=O)C(Cc2ccccc2)NS(=O)(=O)c2ccc3c(c2)c(=O)n(C)c(=O)n3C)c1 (configuration not stated) | inactive: 75% |
| COC(=O)C1CCN(S(=O)(=O)c2ccc(N3CCCCS3(=O)=O)cc2)CC1 | inactive: 71% |
| COC(=O)c1cc(C)nc2c1c(=O)nc(SCc1ccccc1C)n2C1CC1 | inactive: 85% |
| CCOC(=O)c1c(NC(=O)CSc2cn(CCNC(=O)c3c(F)cccc3F)c3ccccc23)sc2c1CCC2 | inactive: 81% |
| COc1ccc(CCN2C(=O)c3[nH]nc(-c4ccccc4O)c3C2c2ccc(OC)c(OC)c2)cc1 (configuration not stated) | inactive: 55% |
| CC(=O)Nc1c(C)nn(-c2ccccc2)c1N1CCC(C(=O)NCc2ccccc2Cl)CC1 | active: -4% |
| CC1(C)CC(=O)C=C(NCC(O)c2ccccc2)C1 (configuration not stated) | inactive: 98% |
| Cc1ccc(S(=O)Cc2nc(-c3ccc(C(=O)NCc4cccc(C)c4)cc3)oc2C)cc1 (configuration not stated) | inactive: 99% |
| O=C(CCn1nc(-c2ccc(Cl)cc2)ccc1=O)NCCc1ccccc1 | inactive: 77% |

| Compound | survival |
| --- | --- |
| O=C(COc1ccccc1Cl)Nc1ccc2nc(SCC(=O)N3CCCC3)sc2c1 | inactive: 40% |
| CCCn1c(=O)c2sccc2n2c(CCCC(=O)NCc3ccccc3)nnc12 | inactive: 99% |
| CCOC(=O)COc1ccc(F)cc1C(=O)c1ccn2nc(-c3ccc(Cl)cc3)cc2n1 | inactive: 72% |
| CCOC(=O)c1noc2ncnc(Nc3cccc(OC)c3)c12 | inactive: 73% |
| CCOC(=O)C1=C(CS(=O)(=O)c2ccc(OC)c(Cl)c2)NC(=O)NC1c1cccc(OC)c1 (configuration not stated) | inactive: 87% |
| COc1cccc(NC(=O)CSc2nc(-c3ccccc3Cl)nc3c2Cc2c(CO)cnc(C)c2O3)c1 | inactive: 114% |
| CCOc1ccc(-n2c(SCC(N)=O)nc3c(oc4ccccc43)c2=O)cc1 | inactive: 83% |
| COc1ccc(-c2cc(-c3ccccc3)nc(SCC(=O)Nc3ccccc3F)c2C#N)cc1 | inactive: 155% |
| O=C1c2cccc3cccc(c23)N1c1ccccc1 | inactive: 108% |
| O=C(O)CNS(=O)(=O)c1ccc2ccccc2c1 | inactive: 113% |
| O=C(Nc1nncs1)c1ccc(F)cc1 | inactive: 106% |
| COc1ccc(C(=O)Nc2ccc3c(c2)CCCN3S(=O)(=O)c2ccc(C)cc2)c(OC)c1 | inactive: 60% |
| CN1Cc2ccccc2CC1C(=O)O (configuration not stated) | inactive: 115% |
| CCc1ccc(S(=O)(=O)c2cn(C)c3cc(N4CCCC4)c(F)cc3c2=O)cc1 | inactive: 83% |
| O=C(O)c1ccccc1C(=O)NC1=NN(c2ccccc2)CC1 | inactive: 112% |
| O=C(NCc1ccco1)c1ccc2c(c1)N(Cc1ccc(Cl)cc1)C(=O)c1ccccc1S2(=O)=O | inactive: 109% |
| COC(=O)c1nnn(-c2ccc(Br)cc2)c1C(=O)OC | inactive: 84% |
| CCOC(=O)CC(NC(=O)CCc1c(C)nc2ncnn2c1C)c1ccc(C)cc1 (configuration not stated) | inactive: 86% |
| CCOc1ccc(C(=O)NCCc2csc(-c3cccc(F)c3)n2)cc1OCC | inactive: 115% |
| COc1cccc(NC(=O)C2CCCN(S(=O)(=O)c3cccc4nonc34)C2)c1 (configuration not stated) | inactive: 104% |
| Cc1cn2c(=O)c(S(=O)(=O)Nc3ccc(F)cc3F)c(C)nc2s1 | inactive: 84% |
| O=C(NCCC1=CCCCC1)C1CCN(C(=O)N2CCOc3ccc(Cl)cc32)CC1 | inactive: 94% |
| CN(Cc1ccccc1)c1ccc(-c2nc(-c3ccncc3)no2)cc1[N+](=O)[O-] | inactive: 95% |
